First the molecules themselves.
B1: PhoH-like protein YbeZ, bacterial two-hybrid fusion (protein, UniProt P0A9K3 1-346)
chain: MNIDTREITLEPADNARLLSLCGPFDDNIKQLERRLGIEINRRDNHFKLTGRPICVTAAADILRSLYVDTAPMRGQIQDIEPEQIHLAIKEARVLEQSAESVPEYGKAVNIKTKRGVIKPRTPNQAQYIANILDHDITFGVGPAGTGKTYLAVAAAVDALERQEIRRILLTRPAVEAGEKLGFLPGDLSQKVDPYLRPLYDALFEMLGFEKVEKLIERNVIEVAPLAYMRGRTLNDAFIILDESQNTTIEQMKMFLTRIGFNSKAVITGDVTQIDLPRNTKSGLRHAIEVLADVEEISFNFFHSEDVVRHPVVARIVNAYEAWEEAEQKRKAALAAERKREEQEQK
B2: Ribosome maturation factor RimM, bacterial two-hybrid fusion (protein, UniProt P0A7X6 1-182)
chain: MSKQLTAQAPVDPIVLGKMGSSYGIRGWLRVFSSTEDAESIFDYQPWFIQKAGQWQQVQLESWKHHNQDMIIKLKGVDDRDAANLLTNCEIVVDSSQLPQLEEGDYYWKDLMGCQVVTTEGYDLGKVVDMMETGSNDVLVIKANLKDAFGIKERLVPFLDGQVIKKVDLTTRSIEVDWDPGF
B3: GTP-binding protein BipA, bacterial two-hybrid fusion (protein, UniProt P0DTT0 1-607)
chain: MIEKLRNIAIIAHVDHGKTTLVDKLLQQSGTFDSRAETQERVMDSNDLEKERGITILAKNTAIKWNDYRINIVDTPGHADFGGEVERVMSMVDSVLLVVDAFDGPMPQTRFVTKKAFAYGLKPIVVINKVDRPGARPDWVVDQVFDLFVNLDATDEQLDFPIVYASALNGIAGLDHEDMAEDMTPLYQAIVDHVPAPDVDLDGPFQMQISQLDYNSYVGVIGIGRIKRGKVKPNQQVTIIDSEGKTRNAKVGKVLGHLGLERIETDLAEAGDIVAITGLGELNISDTVCDTQNVEALPALSVDEPTVSMFFCVNTSPFCGKEGKFVTSRQILDRLNKELVHNVALRVEETEDADAFRVSGRGELHLSVLIENMRREGFELAVSRPKVIFREIDGRKQEPYENVTLDVEEQHQGSVMQALGERKGDLKNMNPDGKGRVRLDYVIPSRGLIGFRSEFMTMTSGTGLLYSTFSHYDDVRPGEVGQRQNGVLISNGQGKAVAFALFGLQDRGKLFLGHGAEVYEGQIIGIHSRSNDLTVNCLTGKKLTNMRASGTDEAVVLVPPIRMTLEQALEFIDDDELVEVTPTSIRIRKRHLTENDRRRANRAPKDD
B4: GTPase Der, bacterial two-hybrid fusion (protein, UniProt P0A6P5 1-490)
chain: MVPVVALVGRPNVGKSTLFNRLTRTRDALVADFPGLTRDRKYGRAEIEGREFICIDTGGIDGTEDGVETRMAEQSLLAIEEADVVLFMVDARAGLMPADEAIAKHLRSREKPTFLVANKTDGLDPDQAVVDFYSLGLGEIYPIAASHGRGVLSLLEHVLLPWMEDLAPQEEVDEDAEYWAQFEAEENGEEEEEDDFDPQSLPIKLAIVGRPNVGKSTLTNRILGEERVVVYDMPGTTRDSIYIPMERDGREYVLIDTAGVRKRGKITDAVEKFSVIKTLQAIEDANVVMLVIDAREGISDQDLSLLGFILNSGRSLVIVVNKWDGLSQEVKEQVKETLDFRLGFIDFARVHFISALHGSGVGNLFESVREAYDSSTRRVGTSMLTRIMTMAVEDHQPPLVRGRRVKLKYAHAGGYNPPIVVIHGNQVKDLPDSYKRYLMNYFRKSLDVMGSPIRIQFKEGENPYANKRNTLTPTQMRKRKRLMKHIKKNK
B5: Initiation factor 3 (IF3), bacterial two-hybrid fusion (protein, UniProt P0A707 1-180)
chain: MKGGKRVQTARPNRINGEIRAQEVRLTGLEGEQLGIVSLREALEKAEEAGVDLVEISPNAEPPVCRIMDYGKFLYEKSKSSKEQKKKQKVIQVKEIKFRPGTDEGDYQVKLRSLIRFLEEGDKAKITLRFRGREMAHQQIGMEVLNRVKDDLQELAVVESFPTKIEGRQMIMVLAPKKKQ
B6: RNase R, bacterial two-hybrid fusion (protein, UniProt P21499 1-813)
chain: MSQDPFQEREAEKYANPIPSREFILEHLTKREKPASRDELAVELHIEGEEQLEGLRRRLRAMERDGQLVFTRRQCYALPERLDLVKGTVIGHRDGYGFLRVEGRKDDLYLSSEQMKTCIHGDQVLAQPLGADRKGRREARIVRVLVPKTSQIVGRYFTEAGVGFVVPDDSRLSFDILIPPDQIMGARMGFVVVVELTQRPTRRTKAVGKIVEVLGDNMGTGMAVDIALRTHEIPYIWPQAVEQQVAGLKEEVPEEAKAGRVDLRDLPLVTIDGEDARDFDDAVYCEKKRGGGWRLWVAIADVSYYVRPSTPLDREARNRGTSVYFPSQVIPMLPEVLSNGLCSLNPQVDRLCMVCEMTVSSKGRLTGYKFYEAVMSSHARLTYTKVWHILQGDQDLREQYAPLVKHLEELHNLYKVLDKAREERGGISFESEEAKFIFNAERRIERIEQTQRNDAHKLIEECMILANISAARFVEKAKEPALFRIHDKPSTEAITSFRSVLAELGLELPGGNKPEPRDYAELLESVADRPDAEMLQTMLLRSMKQAIYDPENRGHFGLALQSYAHFTSPIRRYPDLTLHRAIKYLLAKEQGHQGNTTETGGYHYSMEEMLQLGQHCSMAERRADEATRDVADWLKCDFMLDQVGNVFKGVISSVTGFGFFVRLDDLFIDGLVHVSSLDNDYYRFDQVGQRLMGESSGQTYRLGDRVEVRVEAVNMDERKIDFSLISSERAPRNVGKTAREKAKKGDAGKKGGKRRQVGKKVNFEPDSAFRGEKKTKPKAAKKDARKAKKPSAKTQKIAAATKAKRAAKKKVAE
B7: RNA polymerase-binding transcription factor DksA, bacterial two-hybrid fusion (protein, UniProt P0ABS1 1-151)
chain: MQEGQNRKTSSLSILAIAGVEPYQEKPGEEYMNEAQLAHFRRILEAWRNQLRDEVDRTVTHMQDEAANFPDPVDRAAQEEEFSLELRNRDRERKLIKKIEKTLKKVEDEDFGYCESCGVEIGIRRLEARPTADLCIDCKTLAEIREKQMAG
B8: Ribosome-binding factor A RbfA, bacterial two-hybrid fusion (protein, UniProt P0A7G2 1-133)
chain: MAKEFGRPQRVAQEMQKEIALILQREIKDPRLGMMTTVSGVEMSRDLAYAKVYVTFLNDKDEDAVKAGIKALQEASGFIRSLLGKAMRLRIVPELTFFYDNSLVEGMRMSNLVTSVVKHDEERRVNPDDSKED
B9: Polynucleotide phosphorylase (PNPase), bacterial two-hybrid fusion (protein, UniProt P05055 1-711)
chain: MLNPIVRKFQYGQHTVTLETGMMARQATAAVMVSMDDTAVFVTVVGQKKAKPGQDFFPLTVNYQERTYAAGRIPGSFFRREGRPSEGETLIARLIDRPIRPLFPEGFVNEVQVIATVVSVNPQVNPDIVAMIGASAALSLSGIPFNGPIGAARVGYINDQYVLNPTQDELKESKLDLVVAGTEAAVLMVESEAQLLSEDQMLGAVVFGHEQQQVVIQNINELVKEAGKPRWDWQPEPVNEALNARVAALAEARLSDAYRITDKQERYAQVDVIKSETIATLLAEDETLDENELGEILHAIEKNVVRSRVLAGEPRIDGREKDMIRGLDVRTGVLPRTHGSALFTRGETQALVTATLGTARDAQVLDELMGERTDTFLFHYNFPPYSVGETGMVGSPKRREIGHGRLAKRGVLAVMPDMDKFPYTVRVVSEITESNGSSSMASVCGASLALMDAGVPIKAAVAGIAMGLVKEGDNYVVLSDILGDEDHLGDMDFKVAGSRDGISALQMDIKIEGITKEIMQVALNQAKGARLHILGVMEQAINAPRGDISEFAPRIHTIKINPDKIKDVIGKGGSVIRALTEETGTTIEIEDDGTVKIAATDGEKAKHAIRRIEEITAEIEVGRVYTGKVTRIVDFGAFVAIGGGKEGLVHISQIADKRVEKVTDYLQMGQEVPVKVLEVDRQGRIRLSIKEATEQSQPAAAPEAPAAEQGE
B10: rRNA small-subunit methyltransferase A KsgA, bacterial two-hybrid fusion (protein, UniProt P06992 1-273)
chain: MNNRVHQGHLARKRFGQNFLNDQFVIDSIVSAINPQKGQAMVEIGPGLAALTEPVGERLDQLTVIELDRDLAARLQTHPFLGPKLTIYQQDAMTFNFGELAEKMGQPLRVFGNLPYNISTPLMFHLFSYTDAIADMHFMLQKEVVNRLVAGPNSKAYGRLSVMAQYYCNVIPVLEVPPSAFTPPPKVDSAVVRLVPHATMPHPVKDVRVLSRITTEAFNQRRKTIRNSLGNLFSVEVLTGMGIDPAMRAENISVAQYCQMANYLAENAPLQES
B11: ATP-dependent RNA helicase RhlB, bacterial two-hybrid fusion (protein, UniProt P0A8J8 1-421)
chain: MSKTHLTEQKFSDFALHPKVVEALEKKGFHNCTPIQALALPLTLAGRDVAGQAQTGTGKTMAFLTSTFHYLLSHPAIADRKVNQPRALIMAPTRELAVQIHADAEPLAEATGLKLGLAYGGDGYDKQLKVLESGVDILIGTTGRLIDYAKQNHINLGAIQVVVLDEADRMYDLGFIKDIRWLFRRMPPANQRLNMLFSATLSYRVRELAFEQMNNAEYIEVEPEQKTGHRIKEELFYPSNEEKMRLLQTLIEEEWPDRAIIFANTKHRCEEIWGHLAADGHRVGLLTGDVAQKKRLRILDEFTRGDLDILVATDVAARGLHIPAVTHVFNYDLPDDCEDYVHRIGRTGRAGASGHSISLACEEYALNLPAIETYIGHSIPVSKYNPDALMTDLPKPLRLTRPRTGNGPRRTGAPRNRRRSG
B12: Nucleoside triphosphate pyrophosphohydrolase MazG, bacterial two-hybrid fusion (protein, UniProt P0AEY3 1-263)
chain: MNQIDRLLTIMQRLRDPENGCPWDKEQTFATIAPYTLEETYEVLDAIAREDFDDLRGELGDLLFQVVFYAQMAQEEGRFDFNDICAAISDKLERRHPHVFADSSAENSSEVLARWEQIKTEERAQKAQHSALDDIPRSLPALMRAQKIQKRCANVGFDWTTLGPVVDKVYEEIDEVMYEARQAVVDQAKLEEEMGDLLFATVNLARHLGTKAEIALQKANEKFERRFREVERIVAARGLEMTGVDLETMEEVWQQVKRQEIDL

These are yes or no findings as the source states them, for the method shown. Some binding calls cover weakened binding; strength is not graded here. Sequences can lack the tags named with a protein.

This assay addresses YbeY (E. coli), bacterial two-hybrid fusion (E. coli) (UniProt P0A898). In words: two-hybrid; bacterial adenylate cyclase two-hybrid (BACTH) in E. coli BTH101; T25 and T18 fusions; spots or streaks on LB agar with X-Gal, IPTG and TPEG, 30°C, colour read after 2 or 3 days.
With B1, the binding entry is recorded as “binds”. With B2 the entry was “no binding”; with B3, “no binding”; with B4, “binds”.

In the case of B5, the binding result was “no binding”. The value for B6 was “no binding”. Take B7: the binding result is reported as “no binding”. With B8 the entry was “no binding”; with B9, “no binding”. B10: the binding entry is “no binding”. On to B11, for which the binding entry is “no binding”. The value for B12 was “no binding”.

The record behind these values is PMC5101352.
